Measurements published in article PMC4336329 (PLoS ONE, 2015).
In all, about 310,000 compounds went through this assay and about 14,000 (4.5%) showed an effect of 50% or more. The effect is printed as a negative number. The list shows a part of the results.

Target: human ether-à-go-go-related gene (hERG) potassium channel (human, UniProt Q12809)
Test: primary screen, population patch clamp on CHO cells stably expressing hERG
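Further: peak tail current of the secondary pulse compared with the same well before compound.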

Chain of human ether-à-go-go-related gene (hERG) potassium channel (Q12809 whole entry, looked up): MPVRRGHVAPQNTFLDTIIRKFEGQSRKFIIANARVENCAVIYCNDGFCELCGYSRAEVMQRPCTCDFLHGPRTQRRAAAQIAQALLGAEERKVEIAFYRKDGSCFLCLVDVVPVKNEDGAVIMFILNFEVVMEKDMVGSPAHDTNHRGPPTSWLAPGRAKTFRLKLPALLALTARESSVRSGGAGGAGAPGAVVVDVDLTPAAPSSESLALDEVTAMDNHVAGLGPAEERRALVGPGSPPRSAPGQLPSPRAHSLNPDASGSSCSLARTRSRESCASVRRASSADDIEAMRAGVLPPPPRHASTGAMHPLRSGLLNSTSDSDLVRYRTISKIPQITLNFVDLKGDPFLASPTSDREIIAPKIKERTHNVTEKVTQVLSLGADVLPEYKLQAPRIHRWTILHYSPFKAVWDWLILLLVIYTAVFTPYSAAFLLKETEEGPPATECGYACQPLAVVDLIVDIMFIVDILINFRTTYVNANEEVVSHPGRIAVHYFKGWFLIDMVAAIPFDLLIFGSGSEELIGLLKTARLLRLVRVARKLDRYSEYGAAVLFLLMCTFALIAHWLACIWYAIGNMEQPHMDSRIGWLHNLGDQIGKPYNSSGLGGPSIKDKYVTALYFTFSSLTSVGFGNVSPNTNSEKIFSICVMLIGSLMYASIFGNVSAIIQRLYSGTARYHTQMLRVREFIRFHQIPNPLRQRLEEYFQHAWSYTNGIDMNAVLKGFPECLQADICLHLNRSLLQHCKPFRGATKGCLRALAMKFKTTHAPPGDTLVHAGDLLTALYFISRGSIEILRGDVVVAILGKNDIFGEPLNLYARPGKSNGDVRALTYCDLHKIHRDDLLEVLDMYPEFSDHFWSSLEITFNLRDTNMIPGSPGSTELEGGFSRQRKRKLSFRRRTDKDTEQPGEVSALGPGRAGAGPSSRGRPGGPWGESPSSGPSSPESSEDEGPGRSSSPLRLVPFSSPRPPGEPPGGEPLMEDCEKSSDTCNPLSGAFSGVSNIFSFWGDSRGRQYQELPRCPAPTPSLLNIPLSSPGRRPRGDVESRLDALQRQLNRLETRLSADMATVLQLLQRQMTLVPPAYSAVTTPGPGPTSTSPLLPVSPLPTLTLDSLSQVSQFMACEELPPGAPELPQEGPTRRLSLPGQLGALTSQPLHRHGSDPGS

| SMILES | hERG current change (%, negative = inhibition) at 10uM [%] |
| --- | --- |
| C=CCC1(N(C(C)=O)c2ccccc2C)CCCCC1 | -3.93 |
| O=C(CCNC(=O)c1ccco1)Nc1cccc(Br)c1 | -11.6 |
| CCOc1cccc(-c2nnc(SCC(=O)NC3CC3)n2C)c1 | -9.81 |
| Cc1ccc(C(=O)COC(=O)CSc2cccc3cccnc23)c(C)c1 | 4.91 |
| O=C(COC(=O)c1cccs1)Nc1cc(S(=O)(=O)N2CCOCC2)ccc1Cl | -35.5 |
| O=C(CN(C(=O)CCC(=O)Nc1nccs1)c1ccccc1F)NCc1ccc(F)cc1 | 1.98 |
| Cc1cc(CSc2ccccc2C(=O)O)on1 | 17.5 |
| CC(=O)NCCc1nc2ccccc2n1CCCCOc1ccccc1 | -38.6 |
| C=CC(O)Cc1c(C)n[nH]c1C (centres unmarked) | -2.98 |
| CSCC(=O)N1CCC(Oc2cccc(C(=O)NCc3ccccn3)c2)CC1 | 16 |
| Cc1ccc(N2C(=O)Cc3ccccc3C2=O)cc1 | 19.9 |
| O=S(=O)(Nc1ccc(Cl)cn1)c1ccc(Cl)cc1 | 16.3 |
| O=C1C(=O)N(CCCO)C(c2ccc(Br)cc2)/C1=C(\O)c1ccc(Br)cc1 (centres unmarked) | 4.02 |
| O=P1(Nc2ccc(F)cc2)COc2ccccc2OC1 | -17.2 |
| O=C(Cc1ccccc1)Nc1cccc(-c2nc3ncccc3o2)c1 | 13.6 |
| C[C@]12C(=O)N(c3cccc(F)c3)C(=O)N1[C@@H]1c3ccccc3OC[C@@H]1[C@H]2c1ccccc1 | 13 |
| COCCn1c(N)c(C(=O)Nc2sc3c(c2C(=O)OC)CCCC3)c2nc3ccccc3nc21 | 5.87 |
| C/C(CC(=O)Nc1ccccc1C#N)=N\NC(=O)c1ccncc1 | -2.97 |
| C/C(=N\O)c1c(C)c2ccccc2n1C | -4.71 |
| CC(C)(C)C(=O)N(CCN(C(=O)C(C)(C)C)c1ccccc1)c1ccccc1 | 16.4 |
| CCCCCCNC(=O)CCCCCNS(=O)(=O)c1ccc(Br)cc1 | -4.75 |
| O=C(COc1ccc(Cl)cc1)NCCSCc1cccc(Cl)c1 | -13.5 |

| SMILES | hERG current change (%, negative = inhibition) at 10uM [%] |
| --- | --- |
| Cc1ccc(NC(=O)C2(c3cccs3)CCOCC2)cc1C | -10.6 |
| CSc1nc2nc(-c3cccc(C(F)(F)F)c3)ccn2n1 | 17.2 |
| Cc1cc(C(=O)COc2cccnc2[N+](=O)[O-])c(C)n1Cc1cccs1 | -8.03 |
| CCNC(=O)/C(C#N)=C/c1c(N2CCN(c3ccc(OC)cc3)CC2)nc2c(C)cccn2c1=O | -22.1 |
| Cc1ccc(-c2nc(CS(=O)CC(=O)NCCN3CCCCCC3)c(C)o2)cc1 (centres unmarked) | -15.7 |
| Cc1ccc(NS(=O)(=O)c2cc(C(=O)NCCSC3CCCCC3)ccc2C)cc1 | -6.77 |
| COc1c(F)c(F)c(C(=O)O)c(Nc2cc(C)cc(C)c2)c1F | 13.1 |
| O=C1CC(Nc2ccc(N3CCOCC3)cc2)C(=O)N1C1CCCCC1 (centres unmarked) | 1.12 |
| COc1ccccc1/C=C/C1(C(=O)NC2CCCC2)CC(=O)N1c1ccc(F)cc1 (centres unmarked) | 7.84 |
| CCOC(=O)c1cc(-c2ccccc2)n(CC(=O)Nc2cc(OC)cc(OC)c2)c1C | 10.8 |
| C=CCn1nc(-c2ccccc2)c(N2CCCCC2)cc1=O | -14.2 |
| Cc1cc(OCCCCNC(C)C)cc(C(C)C)c1.O=C(O)C(=O)O | -29.6 |
| CCOC(=O)C1(Cc2ccccc2)C(=O)N(CCCN(C)C)c2ccccc21.Cl (centres unmarked) | 3.31 |
| COc1cc(OC)cc(C(=O)NC(=S)Nc2ccc(NC(=O)c3ccco3)cc2)c1 | -24.6 |
| CCCCC(=O)C1CCN(Cc2ccccc2)CC1 | -34.5 |
| O=C(CCc1nc(-c2ccccc2)no1)NCc1ccccc1CN1CCOCC1 | -10.5 |
| Cc1nc2ccc([N+](=O)[O-])cc2c(=O)n1Cc1ccc(Cl)cc1 | -4.6 |
| O=C(/C=C/c1ccco1)NC(=S)Nc1cccc([N+](=O)[O-])c1 | 9.53 |
| CCc1ccc(C(=O)COC(=O)c2cnc(C)cn2)cc1 | -3.49 |
| CC(C)COP(=O)(OCC(C)C)C(O)c1cccnc1 (centres unmarked) | 1.7 |
| COc1cccc(C(C)NC(=S)NCc2ccc(Cl)cc2)c1 (centres unmarked) | 11.1 |
| O=C1CCCC(O)=C1N=Nc1c(Cl)cc(Cl)cc1Cl | 7.14 |
